The full ranking holds about 13,000 compounds; the median of “IFI” is about 4, and the highest 2% start at about 17. This is one part of the list.
Test: GSK_TCMDC: Inhibition Frequency Index (IFI). The number of non-kinase HTS assays where a compound showed > 50 % inhibition, expressed as a percentage of the number of such assays in which the compound was tested (-0 is zero)
Assay type: functional
For `CC(C)(C)OC(=O)NCc1ccc(Nc2nnc(-c3cccc(C(=O)NCc4cc(C(F)(F)F)cc(C(F)(F)F)c4)c3)o2)cc1`, the IFI was 6.02%. Work on `CCCCc1cc(O)c2c(c1)OC(C)(C)C=C2C1=CCN(Cc2ccccc2)CC1` yielded an IFI of 1.43%. `CCN(CC)c1ccc(C(c2ccc(N(CC)CC)cc2)c2ccc([N+](=O)[O-])cc2)cc1` gave an IFI of 4.35%. For `O=c1c2ccc(Sc3ccccn3)cc2n(-c2ccccc2)c2cc(Sc3ccccn3)ccc12`, the IFI was 4.51%. `NC1=NC(Cc2ccccc2)(c2ccncc2)C(=O)N1CCCc1ccccc1` (stereo not drawn) showed an IFI of 2.44%. Compound `Fc1cccc(-c2ccc3c(c2)CC(NCc2c[nH]c4cnccc24)C3)c1` (stereo not drawn) has an IFI of 11.4%. For `CCCCCCN1CCC(NCc2cccc(C#N)c2)CC1`, the IFI was -0%. For `CC(=O)N1CCC(C(=O)Nc2ccc(-c3cccc(-c4nc5cccc(C)c5[nH]4)c3)cc2)CC1`, the IFI was 6.54%. With `O=S(=O)(c1cc(Cl)c(Cl)cc1Cl)N1CCCCC(c2ccc(C(F)(F)F)cc2)=N1` the IFI was -0%. With `COc1ccc(-c2ccc(NC(=O)c3ccc(Cl)cc3)cc2)cc1CN(C)CCN(C)C` the IFI was 4.95%. `Cc1cccc2nc(-c3ccc(-c4cccc(NCc5cn6cccnc6n5)c4)cc3)[nH]c12` showed an IFI of 6.19%. `CCCC(C)Nc1nc(C)cc(N[C@@H](Cc2ccccc2)C(=O)Nc2ccc(OC)cc2)n1` (stereo partly drawn) showed an IFI of 2.78%. In the case of `c1ccc(-c2ccc(-c3nc4ccccc4[nH]3)cc2)cc1`, the IFI is reported as 4.03%. With `Fc1cccc(C=NN=c2cc[nH]c3ccccc23)c1` the IFI was 0.71%. Compound `O=C(O)c1ccc(NC(=O)C2CC(=O)N(Cc3ccc(Cl)cc3)C(=Nc3ccc(Cl)cc3)S2)cc1` (stereo not drawn) has an IFI of 0%. Work on `O=C(Nc1ccc(Cl)cc1F)NC1CCN(CCCCCNC(=O)C2CC2c2ccc(Cl)c(Cl)c2)CC1` (stereo not drawn) yielded an IFI of 10.7%. For `O=C(/C=C/c1ccc(Cl)c(Cl)c1)NCCCCCN1CCCC(CNC(=O)Nc2ccc(Oc3ccccc3)cc2)C1` (stereo not drawn), the IFI was 9.42%. Work on `Cc1ccc(N2CCN(C(=O)c3cccc(-c4cncc5nc(-c6ccco6)n(C)c45)c3)CC2)nc1` yielded an IFI of -0%. `CCC(C)CN1C(=O)C(c2ccccc2)(c2ccccc2)N=C1N` (stereo not drawn) showed an IFI of 2.86%. In the case of `Cc1cc(C(F)(F)F)cc(-n2ncc(-c3ccc(C(=O)NCc4ccccc4N)cc3)c2N)n1`, the IFI is reported as 10.8%. For `COc1ccc(-c2nc3c(N)nc(N)nc3nc2C(C)C)cc1`, the IFI was 3.79%. In the case of `Cc1cc(C2CCN(CCCCNC(=O)c3ccc(NC(=O)c4ccc(Cl)cc4)cc3)CC2)c(C)cc1OCc1nccn1C`, the IFI is reported as 0.76%. In the case of `CN(C)c1ccc(CN2CCC(NC(=O)c3ccc(-c4ccccc4Cl)s3)CC2)cc1`, the IFI is reported as 12.5%. `CC(C)(CN)c1nc(-c2ccc(Br)c(O)c2)c(-c2ccncc2)[nH]1` gave an IFI of 4.38%. Compound `CC(C)CNC(=O)c1cncc(-c2ccc(CN3CCC(N4CCCC4)CC3)cc2)c1` has an IFI of -0%. With `CC(C)N1CCC(Oc2ccc(CN3CCN(C(c4ccccc4)c4ccc(Cl)cc4)CC3)cc2)CC1` (stereo not drawn) the IFI was 13.9%. `CCc1ccc(C(=O)Nc2cccc(CN3CCCN(Cc4ccc(O)cc4)CC3)c2)cc1` gave an IFI of 4.83%. For `COc1ccc(C2CC(=O)C3=C(C2)NC(C)=C(C(=O)OC2CCCC2)C3c2cccc(O)c2)cc1` (stereo not drawn), the IFI was 5.48%. With `CC1CN(CCCn2c3ccccc3c3ccc(C(=O)CCCN(C)C)cc32)CC(C)N1` (stereo not drawn) the IFI was 3.62%. With `CCCC(CNCc1cccc(OC(F)(F)F)c1)CNc1cc(=O)c2ccccc2[nH]1` (stereo not drawn) the IFI was 2.9%. `CSC1=NC(=Nc2ccccc2C)C2(CCC(C(C)(C)C)CC2)N1c1ccccc1Cl` (stereo not drawn) showed an IFI of 2.96%. Compound `CCOc1cc(NCCSCc2nc[nH]c2C)nc2ccccc12` has an IFI of 1.52%. Compound `CN1CCc2cc(I)c(O)cc2C1Cc1ccccc1Cl` (stereo not drawn) has an IFI of 4.17%. For `Cc1cc(CNCCCCCCCNCc2cccc([N+](=O)[O-])c2)ccc1O`, the IFI was -0%. With `COc1ccc2nccc(N3CCC(NCCNCc4ccc5c(n4)NC(=O)CO5)C3)c2n1` (stereo not drawn) the IFI was 6.43%. In the case of `CC(C)CNCc1cccc(-c2ccc(CN(C(=O)NCCc3ccccc3)C3CCN(Cc4ccccc4)CC3)cc2)c1`, the IFI is reported as 10.9%. With `N#Cc1ccccc1Sc1ccccc1C(=O)Nc1ccc2ccccc2n1` the IFI was 2.25%. `CN1CCN(c2ccnc3ccc(NC(=O)Nc4ccc5ccccc5c4)cc23)CC1` showed an IFI of 1.46%. `O=C(NCCN1CCOCC1)c1csc(C2CCCN(C(=O)c3ccc(O)c(-c4cc(Cl)cc(Cl)c4)c3)C2)n1` (stereo not drawn) showed an IFI of 0.74%. In the case of `CCC(C)OC(=O)C1=C(C)NC2=C(C(=O)CC(c3ccc(OC)c(OC)c3)C2)C1c1ccc(O)cc1` (stereo not drawn), the IFI is reported as 0.69%. Compound `COc1ccc2nccc([C@@H](O)CN3CCC(NC[C@H](Cc4ccccc4)NC(=O)OC(C)(C)C)CC3)c2c1` has an IFI of 2.19%. `COc1ccc(-c2cc(NCc3ccc(-n4ccnc4)cc3)nc(Nc3ccccc3)n2)cc1` gave an IFI of -0%. `CCc1nc(N)nc(N)c1CCCOc1ccccc1Cl` showed an IFI of 5.3%. `OCCNc1nc(Nc2ccc(F)cc2)nc2ccccc12` showed an IFI of 3.52%. `CC(C)N1CCN(c2ccc(OCCCCN3CCN(c4cccc(Cl)c4Cl)CC3)cc2Cl)CC1` gave an IFI of 14.1%. Work on `CCCS(=O)(=O)N1CCC(CO)(Cc2ccccc2C(F)(F)F)CC1` yielded an IFI of 0%. With `Cc1ccnc(NC(c2ccc(Cl)c([N+](=O)[O-])c2)c2ccc3cccnc3c2O)c1` (stereo not drawn) the IFI was 6.43%. Compound `CN(CCO)Cc1ccc(-c2ccc(NS(=O)(=O)c3cccc4cccnc34)cc2)cc1` has an IFI of 5.43%. Compound `O=C(Nc1ccc2c(c1)CCC2)N[C@H]1CCN(CCCCCNC(=O)C2CC2c2ccc(Cl)c(Cl)c2)C1` (stereo partly drawn) has an IFI of 13.5%. With `O=C(Nc1ccc(OC2CCN(Cc3ccc(F)cc3)CC2)c(Cl)c1)c1ccsc1` the IFI was 4.84%. Compound `Fc1ccc2[nH]c(-c3ccc(-c4ccc(CNCCN5CCNCC5)cc4)s3)nc2c1` has an IFI of 6%. Compound `CC(C)(C)c1ccc(NC(=O)c2cccc(CN3CCCN(Cc4cccc(O)c4)CC3)c2)cc1` has an IFI of 13.3%. Compound `OC(CNc1ccnc(Nc2ccccc2)n1)c1ccc(C(F)(F)F)cc1` (stereo not drawn) has an IFI of 8.08%. For `O=C(Nc1ccccc1Cl)N(Cc1cc(Cl)cc(Cl)c1)CC(O)COc1ccc(Cl)c(F)c1` (stereo not drawn), the IFI was 0.7%. `O=C(Nc1c(F)cccc1F)c1cccc(-c2nn3ccccc3c2-c2ccnc(Nc3cccc(-c4cnco4)c3)n2)c1` showed an IFI of 8.33%. For `Cc1cc(NC(=O)NCCN2CCC(NS(=O)(=O)c3ccccc3Cl)C2)c2ccccc2n1` (stereo not drawn), the IFI was 0%. `Cc1cc(N2CCCC2)nc(Nc2ccc(NC(=O)c3ccc(Br)o3)cc2)n1` gave an IFI of 5.41%. Work on `COc1ccccc1N1CCN(Cc2c(NC(C)=O)sc(C)c2C)CC1` yielded an IFI of 0.83%.

Reference: ChEMBL document CHEMBL1157539, “Thousands of chemical starting points for antimalarial lead identification” (Nature, 2010)
